Assay results reported in PubChem BioAssay AID1030 (National Center for Advancing Translational Sciences (NCATS), 2008).
“And” between values parts separate entries of the source, which are not always exact repeats. Equal entries are not always repeated. Hit rate of the full screen: of about 220,000 compounds, about 16,000 (7.3%) were called active. The inconclusive results got no clear call from the source; some entries with a clear call stand among them for comparison. The call rests on the fitted dose curve; in most records, active means well fitted inhibition curve with a large enough effect (not every such curve was filed as active); inconclusive means small, poorly fitted or top-dose-only effect, or another doubt; inactive means no such curve, though single readings can be large or run the other way. Potencies of inconclusive entries are doubtful fits and often do not repeat. More than one record can exist for a structure, and the calls need not agree.

Each compound was assayed against Aldehyde dehydrogenase 1A1 (Homo sapiens) (UniProt P00352) (assay: qHTS Assay for Inhibitors of Aldehyde Dehydrogenase 1 (ALDH1A1)). Details: Purified ALDH1A1, NADH fluorescence, propionaldehyde substrate; series mostly up to 75.3 µM; activity, negative = inhibition: at the top concentration.
Sequence of UniProt P00352 (P00352 whole entry, looked up): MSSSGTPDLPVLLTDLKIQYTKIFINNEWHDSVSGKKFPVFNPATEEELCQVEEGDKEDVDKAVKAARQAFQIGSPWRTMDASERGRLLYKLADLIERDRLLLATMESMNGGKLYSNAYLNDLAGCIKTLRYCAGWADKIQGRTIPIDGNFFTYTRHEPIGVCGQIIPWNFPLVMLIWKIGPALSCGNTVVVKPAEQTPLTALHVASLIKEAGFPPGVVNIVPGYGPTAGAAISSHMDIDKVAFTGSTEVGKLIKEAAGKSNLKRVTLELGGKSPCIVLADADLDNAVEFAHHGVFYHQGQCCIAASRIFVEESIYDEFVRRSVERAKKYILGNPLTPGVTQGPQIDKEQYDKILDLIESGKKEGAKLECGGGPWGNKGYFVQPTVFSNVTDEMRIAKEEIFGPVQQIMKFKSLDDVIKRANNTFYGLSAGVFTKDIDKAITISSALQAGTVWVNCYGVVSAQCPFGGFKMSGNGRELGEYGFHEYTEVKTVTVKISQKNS
Potency means the concentration at half of the fitted maximal effect; tags describe the fitted curve by direction and shape.
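Wherever activity, negative = inhibition is given: plate controls were no enzyme wells and a reference inhibitor.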

| SMILES | Potency | activity, negative = inhibition |
| --- | --- | --- |
| Cc1cccc2c3c(ccc12)C1=C(C(=O)C3=O)C(C)CO1 (stereo unspecified) | active: 17.8 µM |  |
| CN(C)P(=NC(=S)c1cccn1C)(N(C)C)N(C)C | inconclusive: 28.2 µM [inhibitor, single point] |  |
| CCCN[C@@H]1CCc2c(OC)cccc2[C@@H]1C | inactive |  |
| c1ccc2c(c1)sc1ccccc12 |  | inactive: -9.32% |
| C=C(C)CN1C(=O)C(O)(CC(=O)c2ccc3c(c2)OCCO3)c2ccccc21 (stereo unspecified) | active: 11.2 µM |  |
| COc1ccccc1OCCCn1cc(C(=O)c2ccco2)c2ccccc21 | inconclusive: 31.6 µM [inhibitor, single point] |  |
| c1ccc(N2CC[C@@]3(CCCNC3)C2)nc1 | inconclusive: 28.2 µM [inhibitor, partial curve] |  |
| CCOc1cc(-c2ccc(N)c(OCC)c2)ccc1N | inconclusive: 15.8 µM [inhibitor, partial curve] |  |
| C/C(=N\NC(=S)Nc1ccccc1)c1c(O)n(C)c(=O)n(C)c1=O | active: 0.794 µM |  |
| Cc1cccc(N2C(=O)NC(=O)/C(=C\c3ccc4c(c3)CCCN4Cc3ccccc3)C2=O)c1 | active: 0.178 µM |  |
| C=CCn1c(O)c(C(C)=NCCN2CCCCC2)c(=O)[nH]c1=O | inconclusive: 39.8 µM [inhibitor, single point] |  |
| CCOC(=O)C1SC2(C(F)(F)C(F)F)CC1(O)c1c(c(OC)c3occc3c1OC)O2 (stereo unspecified) | inconclusive: 39.8 µM [inhibitor, single point] |  |
| CCOC(=O)c1ncn2c1CN(C)C(=O)c1cc(N=[N+]=[N-])ccc1-2 | inconclusive: 28.2 µM [inhibitor, single point] |  |
| c1ccc(N2CC3(CCNCC3)C2)cc1 |  | inactive: 5.74% |
| O=C(O)Cn1cc(/C=C2\C(=O)NC(=O)N(Cc3ccco3)C2=O)c2ccccc21 | active: 8.91 µM |  |
| N#C/C(=C\c1ccc(O)c(O)c1)C(=O)NCCCNC(=O)/C(C#N)=C/c1ccc(O)c(O)c1 | inconclusive: 39.8 µM [inhibitor, single point] |  |
| CCOP(=S)(OCC)Oc1nc(Cl)c(Cl)cc1Cl | inconclusive: 39.8 µM [inhibitor, single point] and inconclusive: 37.7 µM [inhibitor, single point] |  |
| Nc1c2c(nc3sc4c(c13)CCCC4)CCCCC2 |  | inactive: 10.1% |
| Brc1c(NC2=NCCN2)ccc2nccnc12 | inactive and active: 15.8 µM |  |
| CC(C)(C)c1cc(O)ccc1O | active: 79.4 nM and active: 2 µM and active: 3.55 µM |  |
| COc1ccc(NC2=NCC(C)S2)cc1 (stereo unspecified) |  | inactive: 20.1% |
| CC/C(=N\N1CCCCCC1)c1c(O)n(-c2ccc(C)cc2)c(=O)[nH]c1=O | inconclusive: 7.94 µM [inhibitor, full curve] |  |
| CC(=O)Nc1ccc(NC(=O)Oc2ccccc2)cc1 | inconclusive: 35.5 µM [inhibitor, single point] |  |

| SMILES | Potency | activity, negative = inhibition |
| --- | --- | --- |
| COC[C@H]1OC(=O)c2coc3c2[C@@]1(C)C1=C(C3=O)[C@H]2CCC(=O)[C@@]2(C)C[C@H]1OC(C)=O | active: 28.2 µM |  |
| O=c1[nH]c(=O)n(-c2ccc(Cl)cc2)c(O)c1C=Nc1ccc(S(=O)(=O)Nc2nccs2)cc1 | inconclusive: 39.8 µM [inhibitor, single point] |  |
| COCCNC(=O)c1c(NC(=O)c2ccc(Br)o2)n(Cc2ccccc2)c2nc3ccccc3nc12 | inconclusive: 20 µM [inhibitor, partial curve] |  |
| CCC(C)C(=O)OC1C(O)C2C(CN3CC(C)CCC3[C@]2(C)O)C2C[C@]34O[C@@]5(O)C(OC(=O)C(C)(O)C(C)O)CCC3(C)C5C(OC(C)=O)C(OC(C)=O)C4[C@@]21O (stereo partly specified) |  | inactive: 9.1% |
| O=C(Cn1ncc2c3ccccc3n(Cc3ccccc3)c2c1=O)N1CCC2(CC1)OCCO2 | inconclusive: 28.2 µM [inhibitor, single point] |  |
| Nc1c([N+](=O)[O-])cc(F)c(N2CCNCC2)c1Br | inconclusive: 39.8 µM [inhibitor, single point] |  |
| CCn1c(O)c(C=NCc2cccs2)c(=O)n(CC)c1=S | inconclusive: 39.8 µM [inhibitor, single point] |  |
| N[C@@H](Cc1c[nH]c2ccccc12)c1nnc(SCc2ccc(Cl)cc2)o1 | inconclusive: 39.8 µM [inhibitor, single point] |  |
| COP(=O)(OC)c1nc(-c2cccc3ccccc23)oc1N1CCOCC1 | inconclusive: 3.98 µM [inhibitor, partial curve] |  |
| COCCCn1c(N)c(C(=O)OCCOC)c2nc3ccccc3nc21 | inconclusive: 25.1 µM [inhibitor, partial curve] |  |
| COc1ccc(Cl)cc1C(=O)C1CCCN(CCO)C1 (stereo unspecified) | inconclusive: 39.8 µM [inhibitor, single point] |  |
| COc1cc(OC)c(OC)cc1/C=C1/C(=O)NC(=O)N(Cc2ccccc2)C1=O |  | inactive: 5.08% |
| Cc1ccc(-c2ccc(=O)n(CCC(=O)N3CCC4(CC3)OCCO4)n2)cc1 | inconclusive: 39.8 µM [inhibitor, single point] |  |
| CN1CCC(O)(c2ccc(Cl)cc2)C(C(=O)c2ccc(Cl)cc2)C1 (stereo unspecified) | active: 0.112 µM |  |
| O=C(NC1CN2CCC1CC2)c1ccc(-c2ccc([N+](=O)[O-])cc2)o1 (stereo unspecified) | active: 0.447 µM |  |
| CC(=NCCO)c1c(O)n(C2CCCCC2)c(=O)[nH]c1=O | inconclusive: 35.5 µM [inhibitor, single point] |  |
| C/C(=N\NC(N)=S)C12CC3CC(CC(C3)C1)C2 | inconclusive: 0.112 µM [inhibitor, full curve, poor fit] |  |
| C=CCc1c(C)[nH]c(=S)c(C#N)c1C | active: 4.47 µM |  |
| Cc1ccc(CN2CCN(Cc3ccccc3)CC2)cc1 |  | inactive: -3.01% |
| CCN(CC)c1ccc(C=C2C(=O)N(C)C(=S)N(C)C2=O)o1 |  | inactive: -13.9% |
| O=C1/C(=C/c2cccnc2)SC(=NCc2ccccc2)N1Cc1ccccc1 | active: 0.562 µM |  |
| CCOC(=O)N1CCN(Cc2cn3ccccc3n2)CC1 | inconclusive: 39.8 µM [inhibitor, single point] |  |
| CC(C)(C)NC[C@@H](O)COc1cccc2[nH]c(C#N)cc12 |  | inactive: 3.23% |
